PubChem BioAssay AID1508623 (National Center for Advancing Translational Sciences (NCATS), 2021)
Hit rate of the full screen: of about 48,000 compounds, about 450 (0.94%) were called active. Another 19% or so got no clear call; they are omitted. Calls follow the shape of the dose curve; as a rule, active = well fitted inhibition curve with a large enough effect; inconclusive = small, poorly fitted or top-dose-only effect; inactive = no such curve, though single readings can be large or run the other way. This is one part of the list.

Assay: Primary qHTS for Identification of Small Molecule Inhibitors of Huntingtin Promoter Activity; also: nearly all actives have a fitted effect of over 50% in size
Details: HEK293 HTT promoter firefly luciferase reporter (activity 0% = vehicle and -100% = no light), 24 h; series mostly up to 57.5 µM; activity change, negative = inhibition: at the top concentration
In short: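 Firefly luciferase readout (Dual-Glo, 10 min RT) after 24 h, 37 °C compound exposure (final up to 57.5 uM) of HEK293 reporter cells cultured 24 h beforehand; PTC124 at 50 uM final as control inhibitor; activity scaled vehicle 0%, zero RLU -100%.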
Potency is read from the fitted curve at half-maximal effect.

SMILES	activity change, negative = inhibition	Potency
Cn1cnc2c(=O)oc3ccc(S(=O)(=O)N4CCN(c5ccccc5)CC4)cc3c21	inactive: -0.831%	–
COc1ccc(C)cc1NC(=O)c1cc2c(s1)-c1ccccc1SC2	inactive: -4.11%	–
CC1CCN(S(=O)(=O)c2ccc3ncn(CC(=O)Nc4ccccc4C(F)(F)F)c(=O)c3c2)CC1	inactive: -29%	–
CCOC(=O)C1CCN(C(=O)CSc2n[nH]c(-c3ccccc3Cl)n2)CC1	inactive: 1.64%	–
CN(C)c1ccc(C(CNC(=O)Cc2ccc(Cl)cc2)N2CCOCC2)cc1 (stereo unspecified)	inactive: -22.1%	–
CC(C)OC(=O)c1cc2c(OCC(O)CNC(C)(C)C)cccc2[nH]1 (stereo unspecified)	inactive: -0.443%	–
CCCn1c2ccccc2c2cnn(CC(=O)Nc3cccc(C(=O)OCC)c3)c(=O)c21	inactive: -20.4%	–
CCOc1ccc(CNC(=O)CN2C(=O)CCn3nc(-c4cn(C)c5ccccc45)cc32)cc1OC	inactive: -0.741%	–
CCOc1ccc(NC(=O)CSc2cc(C)c3ccccc3n2)cc1	inactive: -2.17%	–
COc1ccc(CCNC(=O)Cc2c(C)c3c(cc(C)c4c(C)c(C)oc43)oc2=O)cc1OC	inactive: 3.73%	–
Cc1ccc(S(=O)(=O)c2nc(-c3ccco3)oc2SC(C)C)cc1	inactive: -27.4%	–
CN1CC(=O)N/C1=N/C(=O)Nc1cccc(Cl)c1	inactive: 32.8%	–
CC(=O)Nc1nonc1-c1nnc(SCc2ccc(F)cc2Cl)n1C	inactive: -18.8%	–
Cc1ccc(NC(=O)CN2Cc3ccccc3C2=O)c(C)c1	inactive: -10.6%	–
CCOC(=O)c1cccc(NC(=O)CCS(=O)(=O)c2ccc(Br)s2)c1	inactive: -15.2%	–
Cc1c(C)n(Cc2ccc(F)cc2)c2ccc(C(=O)N3CCN(c4ccc(Cl)cc4)CC3)cc12	inactive: -12.6%	–
Cn1c(=O)c2c(nc(SCC(=O)Nc3ccc(F)cc3F)n2Cc2ccccc2)n(C)c1=O	inactive: -7.87%	–
CC1(C(=O)NC2CCCCC2)Cc2ccccc2C(=O)N1Cc1ccc(Cl)cc1 (stereo unspecified)	inactive: -20.5%	–
CCOC(=O)C1CCN(c2cc3c(cc2NC(=O)c2ccc(OC)c(OC)c2)n(C)c(=O)n3C)CC1	inactive: -18.7%	–
CC1CCCCN1S(=O)(=O)c1ccc(F)c(C(=O)Nc2ccccc2C(F)(F)F)c1 (stereo unspecified)	inactive: -6.92%	–
COC(=O)c1ccccc1C(=O)c1ccc(OCCN2CCCCC2)cc1	inactive: -1.4%	–
CCC(C)NC(=O)Cn1c(=O)n(CCCC(=O)NCc2ccc(C)cc2)c(=O)c2ccccc21 (stereo unspecified)	inactive: -2.95%	–
Cc1cn2c(=O)cc(COc3cc(C)c(Cl)c(C)c3)nc2s1	inactive: -11.5%	–
CCOc1ccc(NC(=O)CN(c2ccccc2OCC)S(=O)(=O)c2ccccc2)cc1	inactive: -20.6% [at 11.5 µM]	–

SMILES	activity change, negative = inhibition	Potency
CCOc1cc2sc(N3CCC(C(=O)Nc4ccc(C(C)C)cc4)CC3)nc2cc1Br	inactive: 69.7%	–
Cc1cc(Cl)ccc1NS(=O)(=O)c1ccc2c(c1)CCN2S(C)(=O)=O	inactive: -23%	–
Cc1cc(=O)n(Cc2cccc(Br)c2)c2c1c(C)nn2-c1ccccc1	inactive: 1.65%	–
Cc1cccc(CNC(=O)Cc2csc3ccccc23)c1	inactive: 68.9%	–
COc1ccc(NC(=O)CC2C(=O)N(c3ccc(OC)cc3)C(=O)N2C2CCCCC2)cc1 (stereo unspecified)	inactive: 26.3%	–
Cc1ccc(Nc2cc(=O)[nH]c(=O)[nH]2)cc1C	inactive: -2.79%	–
COc1cccc(C(=O)N2CC(=O)Nc3ccc(C)cc3C2c2ccc(F)cc2)c1OC (stereo unspecified)	inactive: -29%	–
COc1ccc(OC)c(CNC(=O)CCc2c(C)nc3c(c2C)c(=O)n(C)c(=O)n3C)c1	inactive: -7.42%	–
Cc1ccc2oc(=O)c(-c3nc4ccc(C)cc4[nH]3)cc2c1	inactive: 23.2%	–
COc1ccc(Cl)cc1NC(=O)CSc1nnc(C)n2c1cc1sccc12	inactive: 1.83%	–
CCCOc1ccc(CNC(=O)C(C)n2nc(C)n3c(cc4occc43)c2=O)cc1 (stereo unspecified)	inactive: -21.9%	–
Cc1oc2ncnc(N3CCCCC3)c2c1C(=O)Nc1cccc(Cl)c1C	inactive: -26.8%	–
Cn1c2c(c(=O)n(C)c1=O)C(c1cc(Br)ccc1F)CC(=O)N2 (stereo unspecified)	inactive: -0.0025%	–
Cc1ccc2[nH]c(CSc3nnc(NC(=O)COc4ccccc4C)s3)cc(=O)c2c1	inactive: -6.42%	–
Cc1cccc(C)c1NC(=O)c1c(C)oc2c1C1=NCCN1C=N2	inactive: -7.19%	–
CCCOCc1cc(CN2CCN(c3cccc(Cl)c3)CC2)c(O)c2ncccc12	–	active: 8.91 µM
COc1ccc(Nc2cc(C(=O)NCCCN(C)c3ccccc3)c3ccccc3n2)c(OC)c1	inactive: -3.36%	–
Cc1cccc(CCNC(=O)c2ccc3c(c2)nc2n3CCOC2)c1	inactive: 50.5%	–
COC(=O)c1ccc(NC(=O)c2cc(S(=O)(=O)N3CCC(C)CC3)cn2C)cc1	inactive: -13.7%	–
CCOC(=O)c1ccc(Nc2nc(N)c3cc(OC)c(OC)cc3n2)cc1	inactive: -28.4%	–
CCn1cc(C(=O)NCCCN2CCC(C)CC2)c(=O)c2cc(S(=O)(=O)N(C)C3CCCCC3)ccc21	inactive: -6.64%	–
COc1ccc(C(=O)c2oc3ccccc3c2NC(=O)COc2cccc(C)c2)cc1	inactive: -11.3%	–
CN1CCC[C@@H]1Cc1c[nH]c2ccc(CCS(=O)(=O)c3ccccc3)cc12	inactive: -5.36%	–
Cc1nn(C)c2c1c(-c1ccccc1)cc(=O)n2C(C)C(=O)NCCc1ccc(Cl)cc1 (stereo unspecified)	inactive: -9.11%	–

SMILES	activity change, negative = inhibition	Potency
COc1ccc(S(=O)(=O)NCC(c2ccco2)N2CCN(c3ccccc3F)CC2)cc1OC (stereo unspecified)	inactive: -17.7%	–
CC(C)c1nc2ccc(C(=O)NCc3ccc(F)cc3)cc2o1	inactive: -13.1%	–
CC1CCN(C(=O)c2ccccc2NC(=O)c2nsc3ccccc23)CC1	inactive: -0.111%	–
CCc1cccc(NC(=O)C2CCCN2S(=O)(=O)c2ccc3c(c2)n(C)c(=O)c(=O)n3C)c1 (stereo unspecified)	inactive: -8.6%	–
COc1ccc(-n2c(SCC(=O)Nc3cc(C)cc(C)c3)nc3c(oc4ccccc43)c2=O)cc1	inactive: -4.35%	–
CCOc1ccc(-c2cc(NC(=O)c3c(F)cccc3F)c(C(=O)OC)s2)cc1	inactive: 8.3%	–
COc1ccccc1N1CCN(C(=O)c2nc(-c3ccc(C)cc3)n3c2CCCCC3)CC1	inactive: -17.3%	–
COc1ccc(NC(=O)c2cc(S(=O)(=O)N3CCCCC3)c[nH]2)cc1Cl	inactive: -22%	–
Cc1ccc(Cl)cc1NC(=O)c1cnn2c(C(F)F)cc(-c3ccccc3)nc12	inactive: 0.0095%	–
Cc1cc(C)c(/C=C/c2onc(C)c2S(=O)(=O)N2CCC(C(=O)NCC(C)c3ccccc3)CC2)c(C)c1 (stereo unspecified)	inactive: -31.4%	–
Cc1cc(NC(=O)CC(C)C)cc(-c2nc3ncccc3o2)c1O	inactive: -5.93%	–
CC(C)[N+](C)(CCOC(=O)C1c2ccccc2Oc2ccccc21)C(C)C	inactive: -5.65%	–
Cc1ccc(CNC(=O)CCCCn2c(=O)c3ccccc3n(Cc3ccc(C)cc3)c2=O)cc1	inactive: -7.44%	–
CCOC(=O)c1c(S(=O)(=O)N2CCC(C(=O)NCc3ccccc3OC)CC2)c(C)n(C)c1C	inactive: -6.05%	–
CCCCSCCCNC(=O)c1cn(C)c2ccc(S(=O)(=O)N3CCCC3)cc2c1=O	inactive: -21.6% [at 11.5 µM]	–
Cc1cc(C)cc(OCC(=O)N(Cc2ccc(Cl)cc2)CC2CCCO2)c1 (stereo unspecified)	inactive: -14.9%	–
O=C(NC1CCCC1)c1ccc2c(=O)n(Cc3ccccc3)c(SCc3ccccc3)nc2c1	inactive: -5.65%	–
Cc1ccc(-n2nc(C(=O)Nc3ccc(C)c(F)c3)c(=O)n(C)c2=O)cc1	inactive: -3.18%	–
COc1ccc(-c2nc3ccc(C)cn3c2Nc2ccc3c(c2)OCO3)cc1	inactive: 15.1%	–
COc1cc(C(=O)N2CCN(c3ccc(Nc4ccccc4)nn3)CC2)cc(OC)c1OC	inactive: -6.92%	–
Cc1ccc(-n2nnnc2CNC(=O)c2ccccc2)cc1C	inactive: 1.47%	–
CC1CCCCN1S(=O)(=O)c1cc2c3c(c1)CC(=O)N3CCC2 (stereo unspecified)	inactive: -20.7%	–
COc1cc(C(=S)N2CCOCC2)cc(OC)c1OC	inactive: 6.57%	–
O=C(Cn1c(=O)n(Cc2ccc(C(=O)NCc3ccccc3Cl)cc2)c(=O)c2ccccc21)Nc1ccc(F)c(Cl)c1	inactive: -7.1%	–

SMILES	activity change, negative = inhibition	Potency
COc1ccc(N2CC(NC(=O)COc3ccc4ccccc4c3)CC2=O)cc1 (stereo unspecified)	inactive: -20.3%	–
CN(C)S(=O)(=O)c1ccc2c(c1)N(CC(=O)N1CCN(c3ccccc3F)CC1)CCS2	inactive: -16.6%	–
COc1cccc(C(=O)Nc2ccccc2-c2nc3ccccc3s2)c1	inactive: -9.52%	–
Cc1cccc(CNC(=O)CN2C(=O)CCCc3ccccc32)c1	inactive: 18%	–
Cc1ccc(-c2nc(CS(=O)(=O)CC(=O)NCc3ccccc3Cl)c(C)o2)cc1	inactive: -2.22%	–
CC(C)Cc1ccc(CC(=O)O)cc1	inactive: 6.93%	–
Cc1oc(-c2cccc(Cl)c2)nc1CN1CCCC(C(=O)NCc2ccc(Cl)cc2)C1 (stereo unspecified)	inactive: -13.1%	–
NC(N)=NCCC[C@H](N)C(=O)O	inactive: 10.3% [at 6.01 µM]	–
O=S(=O)(c1ccc2[nH]c3c(c2c1)CCCCC3)N1CCN(c2cccc(Cl)c2)CC1	inactive: -0.646%	–
CC1=C(C(=O)Nc2cccc(C(F)(F)F)c2)C2(CCCCC2)OC1=O	inactive: -24.9%	–
Cc1cccc(NC(=O)c2sc(-n3nc(C)c(CCC(C)C)c3C)nc2C)c1C	inactive: -2.67%	–
CCOC(=O)C1CCN(c2c(C(=O)c3ccc(C)cc3)cnc3ccc(F)cc23)CC1	inactive: -12.1%	–
COc1ccc(NC(=O)CN2C(=O)c3ccccc3Sc3ccc(C(=O)N4CCOCC4)cc32)c(OC)c1	inactive: -22.1%	–
COc1cc(C(=O)OCc2cc(=O)n3nc(C(C)C)sc3n2)cc(OC)c1OC	inactive: -16.7%	–
COc1cc(NC(=O)c2cccc(F)c2)ccc1NC(=O)c1cc2ccccc2o1	inactive: 11.8%	–
CCOc1ccccc1NC(=O)CN1CCCN(Cc2cccc(Cl)c2)S1(=O)=O	inactive: -13.6%	–
O=C(Nc1ccc(Oc2ccnc3[nH]ccc23)c(F)c1)c1cccn(-c2ccc(F)cc2)c1=O	inactive: -1.11%	–
CCOC(=O)c1cccc(NS(=O)(=O)c2cc3[nH]c(=O)c(=O)[nH]c3cc2C)c1	inactive: 13.1%	–
Cc1nc2ncnn2c(C)c1CCC(=O)N1CCN(c2cccc(Cl)c2)CC1	inactive: -1.86%	–
CCc1ccc(NC(=O)c2nnn(Cc3cccc(C(F)(F)F)c3)c2N)cc1	inactive: -11.8%	–
COc1cccc(CNC(=O)c2ccc3c(c2)nc2n3CCCCC2)c1OC	inactive: 23.3%	–
COc1ccc(NC(=O)Nc2c[nH]c(=O)[nH]c2=O)c(OC)c1	inactive: 3.78%	–
Cc1cccc(-n2c(C)nc3cc(C(=O)NC4CCCCCC4)ccc32)c1	inactive: 3.41%	–
Cc1c(C(=O)N(Cc2ccc(Cl)cc2)CC2CCCO2)oc2ccc(F)cc12 (stereo unspecified)	inactive: -16.5%	–
